# Experimental data as given in PubChem BioAssay AID588453 (National Center for Advancing Translational Sciences (NCATS), 2011).
# Several values for one entry are separate records, joined by “and”; a condition that tells them apart may be missing. Equal entries are not always repeated. In all, about 390,000 compounds went through this assay and about 4,000 (1%) were called active. Inconclusive means that the source gave no clear call. Such entries were picked first, then a sample of the others. The call rests on the fitted dose curve; in most records, active means well fitted inhibition curve with a large enough effect; inconclusive means small, poorly fitted or top-dose-only effect; inactive means no such curve, though single readings can be large or run the other way. Potencies of inconclusive entries are doubtful fits and often do not repeat.
# Target: Thioredoxin reductase 1, cytoplasmic (Rattus norvegicus) (UniProt O89049)
# UniProt O89049, sequence (O89049 whole entry, looked up): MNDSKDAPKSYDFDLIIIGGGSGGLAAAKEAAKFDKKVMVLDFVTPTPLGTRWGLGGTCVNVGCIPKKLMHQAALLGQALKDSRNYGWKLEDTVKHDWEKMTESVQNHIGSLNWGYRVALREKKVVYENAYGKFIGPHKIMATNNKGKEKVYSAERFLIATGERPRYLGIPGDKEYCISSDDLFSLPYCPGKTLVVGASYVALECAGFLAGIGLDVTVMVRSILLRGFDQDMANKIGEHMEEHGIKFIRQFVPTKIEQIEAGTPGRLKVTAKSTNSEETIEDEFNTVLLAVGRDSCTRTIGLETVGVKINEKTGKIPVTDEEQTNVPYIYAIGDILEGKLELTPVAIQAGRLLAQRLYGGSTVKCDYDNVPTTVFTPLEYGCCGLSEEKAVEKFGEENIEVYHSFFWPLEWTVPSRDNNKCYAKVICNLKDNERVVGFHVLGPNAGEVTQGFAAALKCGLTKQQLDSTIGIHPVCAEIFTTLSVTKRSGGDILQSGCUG
# Assay: qHTS Assay for Inhibitors of Mammalian Selenoprotein Thioredoxin Reductase 1 (TrxR1): qHTS; further: nearly all actives have a fitted effect of over 65% in size
# Details: recombinant rTrxR1, NADPH fluorescence consumption, selenite substrate; series mostly up to 114 µM
# Method in brief: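 Rat TrxR1 (90 nM in the dispensed reagent) was pre-reduced with 400 uM NADPH for 5 min at room temperature, then incubated with compound for 15 min. After 400 uM selenite was added, NADPH fluorescence (Ex 340/Em 450 nm) was followed for 8 min.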
# On the % scale 0 is the no-effect control and ±100 the full control effect; potency means the concentration at half of the fitted maximal effect; tags describe the fitted curve by direction and shape.
SMILES,Potency,"activity change, negative = inhibition"
Cc1ccc(S(=O)(=O)N2CCCC2C(=O)Nc2ccc(Br)cc2)cc1 (stereo not given),inactive,
Cc1ccc([C@@H]2[C@@H]3C(=O)N(C)C(=O)[C@@H]3[C@]3(C)C(=O)N(Cc4ccccc4)CC(=O)N23)o1,"inconclusive: 56.2 µM [inhibitor, partial curve, poor fit]",
C/C(=N\NC(=O)c1ccc([N+](=O)[O-])c(C)c1)c1ccccc1Cl,inactive,
COc1ccc2cc(C#N)c(N3CCOCC3)nc2c1,inactive,
O=C(Cc1ccccc1)N1CCN(S(=O)(=O)c2ccc([N+](=O)[O-])cc2)CC1,"inconclusive: 6.31 µM [inhibitor, full curve, poor fit]",
CCOc1ccc(S(=O)(=O)N(CC(=O)NCCc2ccc(OC)cc2)c2ccccc2)cc1,"inconclusive: 79.4 µM [inhibitor, partial curve, poor fit]",
CCc1ccc2c(c1)c1nc(C)sc1n2CC,inactive,
CN(C)c1ccc(/C=C/c2sc3ccccc3[n+]2CCCCI)cc1,"inconclusive: 50.1 µM [inhibitor, partial curve]",
CC(C)CCn1c(Oc2ccc(Cl)cc2)nc2c1c(=O)n(C)c(=O)n2C,"inconclusive: 10 µM [inhibitor, partial curve, poor fit]",
O=C1CN(C(=O)COC(=O)c2ccc([N+](=O)[O-])s2)c2ccccc2N1,"inconclusive: 89.1 µM [inhibitor, single point]",
CN1C(=O)C(CC(=O)Nc2ccc(Cl)cc2)N(Cc2ccco2)C1=S (stereo not given),"inconclusive: 50.1 µM [inhibitor, partial curve]",
S=c1[nH]nc(C2CCCCC2)n1/N=C/c1cccc(Br)c1,inactive,
C=CCOc1c(Br)cc(CNn2cn[nH]c2=S)cc1OC,inactive,
CCCc1cc(=O)[nH]c(Nc2ccccc2O)n1,inactive,
Cc1ccccc1C(=O)NC1CCS(=O)(=O)C1 (stereo not given),inactive,
Cc1ccc(/C=C/C(=O)OC(C)C(=O)Nc2ncc(Cl)cc2Cl)o1 (stereo not given),"inconclusive: 56.2 µM [inhibitor, partial curve, poor fit]",
O=C(Nc1ccc(Cl)cc1C(=O)O)c1ccc2c(c1)C(=O)N(Cc1ccco1)C2=O,"inconclusive: 31.6 µM [inhibitor, partial curve, poor fit]",
CC(=O)c1cccc(NC(=O)CCc2nc3cccnc3n2Cc2cccs2)c1,"inconclusive: 89.1 µM [inhibitor, single point]",
CC(=O)N1CCc2cc(Br)cc(S(=O)(=O)NCCc3ccc(Cl)cc3)c21,inactive,
CC1=C(/C=C/C(C)=C/C=C/C(C)=C/C(=O)Nc2ccc(O)cc2)C(C)(C)CCC1,"inactive and inconclusive: 37.7 µM [inhibitor, single point] and inconclusive: 21.2 µM [inhibitor, partial curve, poor fit]",
CN(C(=O)C=Cc1ccco1)c1ccccc1,,inactive: -2.56% [at 11.4 µM]
N#CCCn1cc(C(CC(=O)c2ccccc2)C(=O)O)c2ccccc21 (stereo not given),"inconclusive: 56.2 µM [inhibitor, partial curve, poor fit]",
c1ccc2cc(-c3cc4ccccn4c3)ccc2c1,"inconclusive: 3.16 µM [inhibitor, full curve]",
CN(C)c1ccc(C(=O)Nc2c(C(=O)NC(C)(C)C)oc3ccccc23)cc1,inactive,

SMILES,Potency,"activity change, negative = inhibition"
Cc1cc(O)c(Oc2cc(C)cc(O)c2O)c(O)c1,"inconclusive: 50.1 µM [inhibitor, partial curve]",
Cc1nc([N+](=O)[O-])c(Br)n1CC(=O)c1ccccc1,active: 11.2 µM,
CCNC(=S)NNC(=O)c1cc(-c2cccc(OC)c2)nc2ccccc12,,inactive: -17.9% [at 11.4 µM]
O=C(C1=C[C@H](c2csc3ccccc23)C[C@H](OCCCCO)O1)N1CCN(Cc2ccccc2)CC1,"inconclusive: 56.2 µM [inhibitor, partial curve]",
CCCCOC(=O)CSC1=C(C#N)C(c2ccccc2OCC)C(C#N)C(=O)N1 (stereo not given),"inconclusive: 31.6 µM [inhibitor, partial curve, poor fit]",
O=C(Nc1ccc2[nH]ccc2c1)c1ccccc1,inactive,
Cc1sc(NC(=O)CCl)c(C(=O)c2ccccc2)c1C,"inconclusive: 0.501 µM [inhibitor, full curve, poor fit]",
COc1ccc(-c2cn3cc(C)ccc3n2)cc1Br,inactive,
COc1ccc(NC(=O)c2cc([N+](=O)[O-])ccc2O)cc1,inactive,
O=C1c2ccccc2NC(c2ccc(OCc3ccccc3)c(OCc3ccccc3)c2)N1Cc1ccco1 (stereo not given),inactive,
N#C/C(=C\c1cc(Br)ccc1F)C(=O)NC1CC1,active: 20 µM,
O=C(C1COc2ccccc2O1)N1CCN(c2ccccn2)CC1 (stereo not given),"inconclusive: 79.4 µM [inhibitor, single point]",
CCC1CCCCN1Cc1c(O)ccc2c(=O)c(-c3ccccc3OC)coc12 (stereo not given),"inconclusive: 79.4 µM [inhibitor, single point]",
Cc1ccccc1-c1ccc(C(=O)Nc2cccc(F)c2)o1,"inconclusive: 50.1 µM [inhibitor, partial curve, poor fit]",
Cc1nn(C)c(C)c1CN(C)C(=O)c1cc2n(n1)C(C(F)(F)F)CC(c1cccs1)N2 (stereo not given),inactive,
CC1CCc2c(C(=O)NCc3ccco3)csc2C1 (stereo not given),"inconclusive: 44.7 µM [inhibitor, partial curve, poor fit]",
Cc1cc(Cl)ccc1OCC(=O)N1CC(C)CC(C)C1 (stereo not given),inactive,
CCCCC(=O)Nc1ccc2c(c1)nc1n2CCN(CCOC)C1,inactive,
O=C(Nc1ccc(S(=O)(=O)N2CCc3ccccc32)cc1)c1ccco1,"inconclusive: 22.4 µM [inhibitor, partial curve, poor fit]",
COc1cc(OC)c(-n2cc(-c3ccc(OC)c(OC)c3)[nH]c2=S)cc1Cl,"inconclusive: 39.8 µM [inhibitor, full curve]",
N#C/C(=C\c1ccc(C#N)cc1)C(=O)c1ccccc1,"inconclusive: 11.2 µM [inhibitor, partial curve, poor fit]",
O=C(CSc1ncccc1C(=O)Oc1ccccc1Cl)Nc1ccccc1Cl,inactive,
CN(C)C(=S)N=c1ssc(=S)n1Cc1ccccc1,"inconclusive: 79.4 µM [inhibitor, single point]",
COc1ccc(-c2csc(NC(=O)COC(=O)c3ccco3)n2)cc1,"inconclusive: 79.4 µM [inhibitor, single point]",

SMILES,Potency,"activity change, negative = inhibition"
COc1ccc(C2/C=C\CN(Cc3ccco3)CC(=O)N2Cc2ccc(F)cc2)cc1 (stereo not given),"inconclusive: 35.5 µM [inhibitor, single point]",
COc1ccc(-c2c[n+]3c(n2-c2ccccc2)CCCCC3)cc1,inactive,
Cc1cn([C@@H](CCCCNC(=O)OC(C)(C)C)C(=O)NCCCCCCCCCCC(=O)N2CCN(C(=O)OC(C)(C)C)CC2)nn1,inactive,
COc1ccccc1CNC(=O)COCc1cc(-c2ccc3c(c2)OCO3)on1,"inconclusive: 79.4 µM [inhibitor, partial curve]",
CC(=O)Nc1ccc(NC(=O)COC(=O)c2ccc([N+](=O)[O-])o2)cc1,"inconclusive: 17.8 µM [inhibitor, full curve]",
Cc1cc(Cl)ccc1Nc1nc(NCc2ccco2)nc2nccnc12,inactive,
Cc1ccccc1NC(=S)NCCc1ccccc1,inactive,
C#CCOCCOCCOCCNc1nc(N2CCN(C(=O)[C@H](CCC(=O)O)n3cc(C(N)CO)nn3)CC2)nc(N2CCN(C(=O)[C@H](CCC(=O)O)n3cc(C(N)[C@H](C)CC)nn3)CC2)n1 (stereo not given in full),"inconclusive: 79.4 µM [inhibitor, partial curve]",
CCCCn1c(=O)cc(N2CCOCC2)[nH]c1=O,"inconclusive: 22.4 µM [inhibitor, single point]",
CCOC(=O)C1C(=O)NC(SCC(=O)Nc2nccs2)=C(C#N)C1c1ccccc1OCC (stereo not given),"inconclusive: 12.6 µM [inhibitor, partial curve]",
CCn1c(C(=O)OC)cc2c1ccn2-c1ccc(F)cc1,"inconclusive: 70.8 µM [inhibitor, single point]",
Clc1ccc[n+](CCCCC[n+]2cccc(Cl)c2)c1,"inconclusive: 56.2 µM [inhibitor, single point]",
COc1ccc(CCNC(=O)COc2ccc3c(c2)OCO3)cc1,"inconclusive: 50.1 µM [inhibitor, partial curve]",
Cc1cc(NC(=O)c2ccccc2)sc1C,"inconclusive: 35.5 µM [inhibitor, single point]",
O=C(CCC(=O)CCN1CCCCC1)CCN1CCCCC1,active: 1.78 µM,
CCCC1=NN2C(=N)/C(=C\c3ccc(SCc4ccco4)o3)C(=O)N=C2S1,"inconclusive: 79.4 µM [inhibitor, single point]",
COc1ccc(C(=O)N/N=C/c2sc(=O)n(Cc3cccc(C(=O)O)c3)c2Cl)cc1,active: 79.4 µM,
S=C1NC2=C(CCCC2=C2SCCCS2)C(c2ccccc2)N1 (stereo not given),inactive,
Cc1ccsc1C(=O)NCC(C)(C)N1CCOCC1,"inconclusive: 10 µM [inhibitor, partial curve]",
Cc1c(Cl)cccc1NC(=O)CSc1nc(=O)n(Cc2ccco2)c2c1CCC2,"inconclusive: 28.2 µM [inhibitor, partial curve, poor fit]",
CC1(C)CC(=O)N(c2cccc(Cl)c2)C(=O)C1,inactive,
O=C1C=C(c2c(O)ccc3ccccc23)c2ccccc2C1=O,"inconclusive: 100 µM [inhibitor, single point]",
